Experimental data published in patent publication US20240277663A1, “PHARMACEUTICAL KITS AND USES THEREOF FOR TREATING COLORECTAL CANCER” (priority 2023, published 2024).

Assays:
[1] = test system: CT26 allograft tumor (MSS subtype colorectal carcinoma); assay: CT26 subcutaneous tumor model, multiple doses of ABT-301 with or without avelumab; type: in vivo, mouse; conditions: alone or + avelumab 200 μg IP, n=10/group
Description: Treatments were administered for indicated period (24 days) or until humane endpoints. Ten mice were used in each group. […] Avelumab was prepared with PBS.

[2] = test system: colorectal cancer tumor; assay: Another batch: HDAC inhibitors (PCI-34051, elevenostat, ABT-301) with or without RMP1-14 in tumor-bearing mice; type: in vivo, mouse; conditions: another batch of experiments, data not shown; compared to vehicle group or to other combinations

SMILES: O=C(/C=C/c1ccc2c(c1)CCN2S(=O)(=O)c1ccccc1)NO [ABT-301, (E)-N-hydroxy-3-(1-(phenylsulfonyl)-indolin-5-yl)-acrylamide]
- number of mice exhibiting partial response (PR) ([1]; ABT-301 25 mg/kg PO QD): 1
- number of mice exhibiting progressive disease (PD) ([1]; ABT-301 25 mg/kg PO QD): 9
- number of mice exhibiting progressive disease (PD) ([1]; ABT-301 100 mg/kg PO QD): 8
- response in the mice on the growth of tumor [2]: did not elicit a visible response
